# This is one part of the list.
# Molecular target: T1, OsWOX13 (Oryza sativa, UniProt Q5QMM3 1-267)
# T1 sequence: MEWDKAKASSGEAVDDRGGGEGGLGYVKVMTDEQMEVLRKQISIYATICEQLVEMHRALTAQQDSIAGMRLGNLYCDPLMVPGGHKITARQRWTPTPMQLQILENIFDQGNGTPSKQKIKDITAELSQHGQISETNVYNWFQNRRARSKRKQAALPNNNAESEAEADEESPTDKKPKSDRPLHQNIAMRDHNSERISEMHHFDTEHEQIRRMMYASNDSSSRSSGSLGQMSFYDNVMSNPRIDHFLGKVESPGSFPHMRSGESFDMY
# Experiment: protein-binding microarray (RPBM); PBS, 2% BSA, 51.3 ng/ul salmon testes DNA, 50 uM zinc acetate, 200 nM TF, 25 C, 1 h; high values mean tight binding
# Details: protein: recombinant; tags: N-terminal polyhistidine and DsRed monomer fusion (pET32a); label: CyDye5-dUTP incorporated in the synthesized complementary strand; 3' TTTTT single-stranded linker to array surface; dsDNA, one strand shown
# Summary of the method: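 A custom Agilent array was converted to double-stranded form by primer extension with Cy5-dUTP and blocked with 2% BSA. Protein at 200 nM in PBS with 2% BSA, salmon testes DNA and 50 µM zinc acetate was applied for 1 h at 25 °C, followed by washing. The proteins were polyhistidine–DsRed N-terminal fusions of transcription factors, expressed in E. coli BL21-CodonPlus and Ni–NTA-purified. The binding signal is per-feature fluorescence intensity (arbitrary units) from an Axon 4000B scanner.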
row,Sequence,binding signal
1,GGAGATGGAAATAGCCAATCACAGGAGAGTGAAGGACTAGCGGAGTCACCTAGTGCAG,22900 fluorescence intensity (a.u.)
2,TAATTAATTCATTATTGGCAAATGTTTACCATAGCACCACCGGAGTCACCTAGTGCAG,11800 fluorescence intensity (a.u.)
3,TTGATTAATTTTGAAGCATATCCCCAGTTATTAATTCCGCCGGAGTCACCTAGTGCAG,29100 fluorescence intensity (a.u.)
4,CCCTTAATCGAGATATCACTATCCCAATTTATGTGTGACCCGGAGTCACCTAGTGCAG,6000 fluorescence intensity (a.u.)
5,AGCCTTAATTTGTTGGATCATTTCCGATTATTTTATTTATCGGAGTCACCTAGTGCAG,12900 fluorescence intensity (a.u.)
6,AATTTGAAAATTCCAAATTTGTGATTGTGCTTCTTGTATGCGGAGTCACCTAGTGCAG,5280 fluorescence intensity (a.u.)
7,ACTGCTAAATGATGTGTTTTGTGCGAAAACTTTCTATATGCGGAGTCACCTAGTGCAG,3640 fluorescence intensity (a.u.)
8,TCTACTTGCAAGGTGTAATTAGTTACTGATGGATACGTATCGGAGTCACCTAGTGCAG,5150 fluorescence intensity (a.u.)
9,TATGATTTGTCTACGTTACAAACATAAACCTTTTCTTCTCCGGAGTCACCTAGTGCAG,11400 fluorescence intensity (a.u.)
10,CAACAGATTGGGCCCGGCCTATGCCGAATGGGCCCGTCAGCGGAGTCACCTAGTGCAG,4460 fluorescence intensity (a.u.)
11,AATTAAATTAACTTATTAACTAATGGCCTCTTCTTCTTCTCGGAGTCACCTAGTGCAG,36000 fluorescence intensity (a.u.)
12,AGTATGATGGAACTGATCAATGCCTGATCCATCGATATGCCGGAGTCACCTAGTGCAG,4760 fluorescence intensity (a.u.)
13,TCCACTTGGGTGATTAGAATCTGTCTTCCCTGTTTTAAGCCGGAGTCACCTAGTGCAG,7670 fluorescence intensity (a.u.)
14,CATATAATCAATTGTATCAAGTGATCCAACACACTAGGTCCGGAGTCACCTAGTGCAG,12800 fluorescence intensity (a.u.)
15,ATTCATCAATCAGTCTGGGCCAGAATGCTTCTAGCTGCGACGGAGTCACCTAGTGCAG,18600 fluorescence intensity (a.u.)
16,TGAAATTGATATATGCCTTGACATTTACTATTTTATTTCCCGGAGTCACCTAGTGCAG,14800 fluorescence intensity (a.u.)
17,GCTTGATTTCAGCTGATATACTCGGTCTTAAAAGACTAGCCGGAGTCACCTAGTGCAG,23400 fluorescence intensity (a.u.)
18,AGTGACATAAATGAAGTGAACCACCCAACCTTCTTGCTCGCGGAGTCACCTAGTGCAG,6740 fluorescence intensity (a.u.)
19,CTAGTAATAACACTGACATCAATTAGCAATTTAGCATCCGCGGAGTCACCTAGTGCAG,13200 fluorescence intensity (a.u.)
20,ATCGAATGATTGGCGATGATTGGGTTGAGTTCGTTGCAACCGGAGTCACCTAGTGCAG,49800 fluorescence intensity (a.u.)
21,GTATTTGCATGATTGCTCGATCGAGATTATATTACCCTCTCGGAGTCACCTAGTGCAG,16800 fluorescence intensity (a.u.)

row,Sequence,binding signal
1,GACAAAATTTAAACTATAGAAGTTGATTTTATTTAGGACGCGGAGTCACCTAGTGCAG,5130 fluorescence intensity (a.u.)
2,GAGGGCAAGGCCCAGGGAAGCATATCTTGATAGTCGATATCGGAGTCACCTAGTGCAG,65500 fluorescence intensity (a.u.)
3,ACTTCAATTTATTGCGGATGTGTGCATCTTCCACAGGTATCGGAGTCACCTAGTGCAG,6530 fluorescence intensity (a.u.)
4,ATTTAACTGGTAATAAATTTTAATAATTTCAGTCCATAATCGGAGTCACCTAGTGCAG,37700 fluorescence intensity (a.u.)
5,TATTATGATTGTTTGTTTAATAATAAATCTAGTAACATCACGGAGTCACCTAGTGCAG,21500 fluorescence intensity (a.u.)
6,TCTAGACTGGACTACCTTGTTTGACTAGCTAGCTACTAAGCGGAGTCACCTAGTGCAG,4110 fluorescence intensity (a.u.)
7,TGAAAATATATTCAATTATTGATTCGATAAAACTAATTTACGGAGTCACCTAGTGCAG,6640 fluorescence intensity (a.u.)
8,TTTGATTATTTGATAACTTGACCAACTTTTATTCACTCAGCGGAGTCACCTAGTGCAG,39200 fluorescence intensity (a.u.)
9,ACTTAACTAATTATACGCTAATGACACATCTCACGCCTCCCGGAGTCACCTAGTGCAG,45400 fluorescence intensity (a.u.)
10,GACAAACTGGTTTGTGTGATTGGTTATCCAGTGACAATCTCGGAGTCACCTAGTGCAG,42900 fluorescence intensity (a.u.)
11,TTTATAAATTATACTTTATTTTATATAAAATGAGCTAATTCGGAGTCACCTAGTGCAG,7020 fluorescence intensity (a.u.)
12,ATGAGCTGTAATTAGGAGTCCGATCGTCTCAAGTTAGCGTCGGAGTCACCTAGTGCAG,6940 fluorescence intensity (a.u.)
13,CAATTAATTTGCACTTTAGCTTTATGCAAGCAGTTGCTAGCGGAGTCACCTAGTGCAG,33500 fluorescence intensity (a.u.)
14,TAGATAAATTACCCTAAAATCCTGTAAAACTTCTGCATTTCGGAGTCACCTAGTGCAG,3350 fluorescence intensity (a.u.)
15,TTGTAAAATTTAAAATTATGTTGTCGTTTTAATATATTTGCGGAGTCACCTAGTGCAG,4270 fluorescence intensity (a.u.)
16,TAGTGATTTGAAAATACGGGTGCAAACAATGGAGCAACAACGGAGTCACCTAGTGCAG,3560 fluorescence intensity (a.u.)
17,AAGTAATTAATACATGGGACCTAATTTATTGGAAGAGAATCGGAGTCACCTAGTGCAG,14300 fluorescence intensity (a.u.)
18,CGACTATAATTAATCTATAATTAAACTCTAATTATTTTAACGGAGTCACCTAGTGCAG,20500 fluorescence intensity (a.u.)
19,ACGATTGATGAAACATATATATCTAAGTTTTAATATATACCGGAGTCACCTAGTGCAG,8270 fluorescence intensity (a.u.)
20,AACTGATTAGCGTCGGGAGCATAGCACATTGGTCGAGTGACGGAGTCACCTAGTGCAG,20200 fluorescence intensity (a.u.)
21,CAGATTGGAGGAAAACGATTCCCCTCTTTTCCTACCTTCCCGGAGTCACCTAGTGCAG,14900 fluorescence intensity (a.u.)

row,Sequence,binding signal
1,CATATATCCACTAATTAATTAATAAACGTTGACCAGTATGCGGAGTCACCTAGTGCAG,20200 fluorescence intensity (a.u.)
2,AGTAAATATGTTTCTAATTAATCGGATTTCAAATATAGCTCGGAGTCACCTAGTGCAG,5230 fluorescence intensity (a.u.)
3,AACAGAGGGACTAATTACCATTTACCAGGTCATGATTTTGCGGAGTCACCTAGTGCAG,10700 fluorescence intensity (a.u.)
4,ATGTTATAATGCGTCAATTGATGGCAACTGTTTCCATTGTCGGAGTCACCTAGTGCAG,6940 fluorescence intensity (a.u.)
5,GGGTTTGAATTGATGGAGTGATTTTAAATAATCGCTGGGCCGGAGTCACCTAGTGCAG,32100 fluorescence intensity (a.u.)
6,AGAGATCAATTACCAAGAAACTGAGAGGAAACACACAGATCGGAGTCACCTAGTGCAG,5620 fluorescence intensity (a.u.)
7,ATTAATCATGTTTTATCATCTAACAACAATGAAAATACGACGGAGTCACCTAGTGCAG,3510 fluorescence intensity (a.u.)
8,TATAACCAAGAGCCCAACATGACATATCTAATTAGAATACCGGAGTCACCTAGTGCAG,18200 fluorescence intensity (a.u.)
9,GGTTTTATTTTCTTTTCTTCGTCGTCTCCCACACTCTCCGCGGAGTCACCTAGTGCAG,3670 fluorescence intensity (a.u.)
10,TGGAATTGATTATGATGCTGTTTCCTTCATGGGAGCTCTACGGAGTCACCTAGTGCAG,31900 fluorescence intensity (a.u.)
11,ATATAAACATACAATTAATAGTTTATTAAAAGAGTGTGTCCGGAGTCACCTAGTGCAG,20600 fluorescence intensity (a.u.)
12,TGTTTATAACTGTAATGACATATAAGCACCACATAGGGGCCGGAGTCACCTAGTGCAG,5560 fluorescence intensity (a.u.)
13,ATAATACTGATTAATCTTATGCATTTCGATTAATCTGTAACGGAGTCACCTAGTGCAG,13500 fluorescence intensity (a.u.)
14,GTGCCTTCAAATTAAATTCCCATCCAATCACCTCTCTTTTCGGAGTCACCTAGTGCAG,8930 fluorescence intensity (a.u.)
15,CTTAATTTTCTACTAACTAAAACCATATACTAAATTAAGCCGGAGTCACCTAGTGCAG,32200 fluorescence intensity (a.u.)
16,TAGTGACTAATTGAAATTTAGTAGTATATGATATGATGTGCGGAGTCACCTAGTGCAG,30500 fluorescence intensity (a.u.)
17,TGTAATTTATCCCGTTGTTACGGTATCCCGTTCTCTATTTCGGAGTCACCTAGTGCAG,5860 fluorescence intensity (a.u.)
18,TTAAATTGGTATTGATAGTTGAGGGAGTCGTTATATCCGACGGAGTCACCTAGTGCAG,41700 fluorescence intensity (a.u.)
19,CGGGACAAATTAATATTCTGTTGTTGCTTCGCTTGGCTTTCGGAGTCACCTAGTGCAG,6790 fluorescence intensity (a.u.)
20,CTAATTTCAAAATTTAAAGATACATTCTCCAATCCAAGGACGGAGTCACCTAGTGCAG,3420 fluorescence intensity (a.u.)
21,TAAAATTACGAGTTGTCAGTGCTGTGCCTATATGTGCACGCGGAGTCACCTAGTGCAG,4730 fluorescence intensity (a.u.)

row,Sequence,binding signal
1,TGGGATTGGGAAATAAATGAAGGGTTAGGATTAAATGGAACGGAGTCACCTAGTGCAG,24100 fluorescence intensity (a.u.)
2,TGGTAGCAATCAATTTTGCCTGTCTAGTGACTGGAATTTCCGGAGTCACCTAGTGCAG,19000 fluorescence intensity (a.u.)
3,ATAAATAAATTTCAGCAAATTAAGGTCGAGAGATCACCTCCGGAGTCACCTAGTGCAG,11300 fluorescence intensity (a.u.)
4,TCAACCAATCACAAACATTCTCTTTCATCTACTTTATCTTCGGAGTCACCTAGTGCAG,12200 fluorescence intensity (a.u.)
5,GAGATTGTGATCAAAATTTCAAAATTCAGACCATCGAAATCGGAGTCACCTAGTGCAG,3210 fluorescence intensity (a.u.)
6,TATCCTAACAGTTACTCTTCAATTATATGTTAATTATATACGGAGTCACCTAGTGCAG,8400 fluorescence intensity (a.u.)
7,TAAACTAACGGAATGAATTAAACAGTTGGTATTGGGTAACCGGAGTCACCTAGTGCAG,3280 fluorescence intensity (a.u.)
8,TAGGATGTTAATTACTCTAATGAAATGAAATAGTTCGAGTCGGAGTCACCTAGTGCAG,15200 fluorescence intensity (a.u.)
9,ACTGTGATTTGGAAATCCCATGAATTGAATAGGCCTGAAGCGGAGTCACCTAGTGCAG,22500 fluorescence intensity (a.u.)
10,TGATAATAGATAGATGGTTAATATATATGTGTGGGTCCACCGGAGTCACCTAGTGCAG,20000 fluorescence intensity (a.u.)
11,TCTCAAATTGATCATCATATAATCACATGGACACGAATTTCGGAGTCACCTAGTGCAG,19100 fluorescence intensity (a.u.)
12,ACTAATTGGACAGTCCGACTGTAAATCGCAAGACTAATATCGGAGTCACCTAGTGCAG,26600 fluorescence intensity (a.u.)
13,GGTAACAATTGATTTGAGAGATCCAATGTTGAACGGTAGCCGGAGTCACCTAGTGCAG,27900 fluorescence intensity (a.u.)
14,TCTCTGTAACTAGATGATCAATTAACCGATTTCATGCATGCGGAGTCACCTAGTGCAG,11200 fluorescence intensity (a.u.)
15,TCTTTTCAAATTGATCATCATCTAACCTGTCTATTTGTTTCGGAGTCACCTAGTGCAG,19400 fluorescence intensity (a.u.)
16,CCTAATATCTATGATCAATGTATTTATTTGATCCGTAGCTCGGAGTCACCTAGTGCAG,4360 fluorescence intensity (a.u.)
17,GAGACGAATCTTTTAAACCTAATTAATATGTCATTAGCACCGGAGTCACCTAGTGCAG,3730 fluorescence intensity (a.u.)
18,TTTCGGTAAATTGGAGGTCGTGGGAACAAATTCTTTCACACGGAGTCACCTAGTGCAG,4950 fluorescence intensity (a.u.)
19,ATAACGTAATTAAACATTTATCAAAGAACCATCCCCTCCACGGAGTCACCTAGTGCAG,25800 fluorescence intensity (a.u.)
20,ATGTGTTCCACTGATTAATCGGATGATGAGGTAGTAGATGCGGAGTCACCTAGTGCAG,5680 fluorescence intensity (a.u.)
21,TTAGAACTTAATTGCATTTCAGTGAATCCGTGAATGATAACGGAGTCACCTAGTGCAG,8550 fluorescence intensity (a.u.)
